Test results: patent US12318477B2, “Injectable and inhalable formulations” (CYBIN UK LTD, priority 2021, dated 2025)

Assay: Stability of Example 10 formulations after storage for 3 months (related substances)
Settings: Example 10 formulation (25 mg/mL as free base, pH 6); 3 months storage at 40° C./75% RH

CN(C)CCc1c[nH]c2ccccc12.O=C(O)/C=C/C(=O)O [SPL026, N,N-dimethyltryptamine (DMT) fumarate salt]
total related substances: 0.35 % w/w
